{"source": "patent US11747352B2", "proteins": {"B1": {"name": "rhCYP3A4 (Homo sapiens) (protein)", "chain": "ALIPDLAMETWLLLAVSLVLLYLYGTHSHGLFKKLGIPGPTPLPFLGNILSYHKGFCMFDMECHKKYGKVWGFYDGQQPVLAITDPDMIKTVLVKECYSVFTNRRPFGPVGFMKSAISIAEDEEWKRLRSLLSPTFTSGKLKEMVPIIAQYGDVLVRNLRREAETGKPVTLKDVFGAYSMDVITSTSFGVNIDSLNNPQDPFVENTKKLLRFDFLDPFFLSITVFPFLIPILEVLNICVFPREVTNFLRKSVKRMKESRLEDTQKHRVDFLQLMIDSQNSKETESHKALSDLELVAQSIIFIFAGYETTSSVLSFIMYELATHPDVQQKLQEEIDAVLPNKAPPTYDTVLQMEYLDMVVNETLRLFPIAMRLERVCKKDVEINGMFIPKGVVVMIPSYALHRDPKYWTEPEKFLPERFSKKNKDNIDPYIYTPFGSGPRNCIGMRFALMNMKLALIRVLQNFSFKPCKETQIPLKLSLGGLLQPEKPVVLKVESRDGTVSGA"}}, "substrate": "COC(=O)[C@@H]1CC2=CC(=O)CC[C@]2(C)[C@@]23O[C@@H]2C[C@@]2(C)[C@@H](CC[C@@]24CCC(=O)O4)[C@H]13", "assay": "cells, lysate or membranes named", "settings": "rhCYP3A4"}
{"protein": "B1", "values": [{"measurement": "Km", "setting": "other: 6β-OH metabolite formation", "value": 613, "unit": "mcM"}, {"measurement": "Km", "setting": "other: 21-OH metabolite formation", "value": 362, "unit": "mcM"}]}
